According to the supplement of paper PMC8728848:
Some of the results follow.

Assays:
Test in all cases: glycan array binding signal (z-score within array); higher = stronger binding
Settings in all cases: glycan notation: IUPAC condensed, linker removed
[1] = biological target: Gal(b1-3)GlcNAc(b1-2)Man(a1-3)[Gal(b1-3)GlcNAc(b1-2)Man(a1-6)]Man(b1-4)GlcNAc(b1-4)[Fuc(a1-6)]GlcNAc
In short: (§1)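 Arrays were curated from the Consortium for Functional Glycomics database, 3228 in total, and kept only where the protein sequence was available. Binding is expressed as a within-array Z-score. This score was averaged across arrays of the same protein sequence at different concentrations or buffers and across linkers, and negative values can be read as non-binding.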

[2] = biological target: Gal(b1-3)GlcNAc(b1-2)Man(a1-3)[GlcNAc(b1-4)][Gal(b1-3)GlcNAc(b1-2)Man(a1-6)]Man(b1-4)GlcNAc(b1-4)GlcNAc
In short: as §1

[3] = biological target: Gal(b1-3)GlcNAc(b1-2)[Gal(b1-3)GlcNAc(b1-6)]Man(a1-6)[Gal(b1-3)GlcNAc(b1-2)Man(a1-3)]Man(b1-4)GlcNAc(b1-4)GlcNAc
In short: as §1

[4] = biological target: Gal(b1-3)GlcNAc(b1-3)Gal(b1-3)GlcNAc
In short: as §1

[5] = biological target: Gal(b1-3)GlcNAc(b1-3)Gal(b1-4)Glc
In short: as §1

[6] = biological target: Gal(b1-3)GlcNAc(b1-3)Gal(b1-4)GlcNAc
In short: as §1

[7] = biological target: Gal(b1-3)GlcNAc(b1-3)Gal(b1-4)GlcNAc(b1-2)Man(a1-3)[Gal(b1-3)GlcNAc(b1-3)Gal(b1-4)GlcNAc(b1-2)Man(a1-6)]Man(b1-4)GlcNAc(b1-4)GlcNAc
In short: as §1

[8] = biological target: Gal(b1-3)GlcNAc(b1-3)Gal(b1-4)GlcNAc(b1-2)[Gal(b1-3)GlcNAc(b1-3)Gal(b1-4)GlcNAc(b1-6)]Man(a1-6)[Gal(b1-3)GlcNAc(b1-3)Gal(b1-4)GlcNAc(b1-2)Man(a1-3)]Man(b1-4)GlcNAc(b1-4)[Fuc(a1-6)]GlcNAc
In short: as §1

[9] = biological target: Gal(b1-3)GlcNAc(b1-3)Gal(b1-4)GlcNAc(b1-3)Gal(b1-4)GlcNAc(b1-2)[Gal(b1-3)GlcNAc(b1-3)Gal(b1-4)GlcNAc(b1-3)Gal(b1-4)GlcNAc(b1-6)]Man(a1-6)[Gal(b1-3)GlcNAc(b1-3)Gal(b1-4)GlcNAc(b1-3)Gal(b1-4)GlcNAc(b1-2)Man(a1-3)]Man(b1-4)GlcNAc(b1-4)[Fuc(a1-6)]GlcNAc
In short: as §1

[10] = biological target: Gal(b1-3)GlcNAc(b1-3)Gal(b1-4)GlcNAc(b1-6)[Gal(b1-3)GlcNAc(b1-3)]Gal(b1-4)Glc
In short: as §1

[11] = biological target: Gal(b1-3)GlcNAc(b1-3)Gal(b1-4)[Fuc(a1-3)]GlcNAc
In short: as §1

[12] = biological target: Gal(b1-3)GlcNAc(b1-3)Gal(b1-4)[Fuc(a1-3)]GlcNAc(b1-6)[Gal(b1-3)GlcNAc(b1-3)]Gal(b1-4)Glc
In short: as §1

[13] = biological target: Gal(b1-3)GlcNAc(b1-3)GalNAc
In short: as §1

[14] = biological target: Gal(b1-3)GlcNAc(b1-6)Gal(b1-4)GlcNAc
In short: as §1

[15] = biological target: Gal(b1-3)GlcNAc(b1-6)GalNAc
In short: as §1

[16] = biological target: Gal(b1-3)GlcNAc(b1-6)[Gal(b1-3)]GalNAc
In short: as §1

Gal(b1-3)GlcNAc6S = biological target: Gal(b1-3)GlcNAc6S
In short: as §1

[17] = biological target: Gal(b1-3)[Fuc(a1-4)]GlcNAc
In short: as §1

[18] = biological target: Gal(b1-3)[Fuc(a1-4)]GlcNAc(b1-2)Man
In short: as §1

[19] = biological target: Gal(b1-3)[Fuc(a1-4)]GlcNAc(b1-2)Man(a1-3)[Gal(b1-3)[Fuc(a1-4)]GlcNAc(b1-2)Man(a1-6)]Man(b1-4)GlcNAc(b1-4)[Fuc(a1-6)]GlcNAc
In short: as §1

[20] = biological target: Gal(b1-3)[Fuc(a1-4)]GlcNAc(b1-3)Gal(b1-3)[Fuc(a1-4)]GlcNAc
In short: as §1

[21] = biological target: Gal(b1-3)[Fuc(a1-4)]GlcNAc(b1-3)Gal(b1-4)[Fuc(a1-3)]GlcNAc
In short: as §1

[22] = biological target: Gal(b1-3)[Fuc(a1-4)]GlcNAc(b1-6)GalNAc
In short: as §1

[23] = biological target: Gal(b1-3)[GlcNAc(b1-6)]GalNAc
In short: as §1

[24] = biological target: Gal(b1-3)[Neu5Ac(a2-6)]GalNAc
In short: as §1

[25] = biological target: Gal(b1-3)[Neu5Ac(a2-6)]GlcNAc(b1-4)Gal(b1-4)Glc
In short: as §1

[26] = biological target: Gal(b1-3)[Neu5Ac(b2-6)]GalNAc
In short: as §1

Gal(b1-4)Gal = biological target: Gal(b1-4)Gal
In short: as §1

[27] = biological target: Gal(b1-4)GalNAc(a1-3)[Fuc(a1-2)]Gal(b1-4)GlcNAc
In short: as §1

[28] = biological target: Gal(b1-4)GalNAc(b1-3)[Fuc(a1-2)]Gal(b1-4)GlcNAc
In short: as §1

Gal(b1-4)Glc = biological target: Gal(b1-4)Glc
In short: as §1

Gal(b1-4)Glc6S = biological target: Gal(b1-4)Glc6S
In short: as §1

Gal(b1-4)GlcNAc = biological target: Gal(b1-4)GlcNAc
In short: as §1

[29] = biological target: Gal(b1-4)GlcNAc(a1-6)Gal(b1-4)GlcNAc
In short: as §1

Gal(b1-4)GlcNAc(b1-2)Man = biological target: Gal(b1-4)GlcNAc(b1-2)Man
In short: as §1

[30] = biological target: Gal(b1-4)GlcNAc(b1-2)Man(a1-3)Man(b1-4)GlcNAc(b1-4)GlcNAc
In short: as §1

[31] = biological target: Gal(b1-4)GlcNAc(b1-2)Man(a1-3)[Gal(b1-4)GlcNAc(b1-2)Man(a1-6)]Man(b1-4)GlcNAc(b1-4)GlcNAc
In short: as §1

B1: mCC1-Hexahis-Precomplexed (Mus musculus), P31809 (protein)
chain: MELASAHLHKGQVPWGGLLLTASLLASWSPATTAEVTIEAVPPQVAEDNNVLLLVHNLPLALGAFAWYKGNTTAIDKEIARFVPNSNMNFTGQAYSGREIIYSNGSLLFQMITMKDMGVYTLDMTDENYRRTQATVRFHVHPILLKPNITSNNSNPVEGDDSVSLTCDSYTDPDNINYLWSRNGESLSEGDRLKLSEGNRTLTLLNVTRNDTGPYVCETRNPVSVNRSDPFSLNIIYGPDTPIISPSDIYLHPGSNLNLSCHAASNPPAQYFWLINEKPHASSQELFIPNITTNNSGTYTCFVNNSVTGLSRTTVKNITVLEPVTQPFLQVTNTTVKELDSVTLTCLSNDIGANIQWLFNSQSLQLTERMTLSQNNSILRIDPIKREDAGEYQCEISNPVSVRRSNSIKLDIIFDPTQGGLSDGHHHHHH
[1]
  glycan array binding signal (z-score): -0.158
[2]
  glycan array binding signal (z-score): -0.162
[3]
  glycan array binding signal (z-score): -0.273
[4]
  glycan array binding signal (z-score): -0.192
[5]
  glycan array binding signal (z-score): -0.284
[6]
  glycan array binding signal (z-score): -0.201
[7]
  glycan array binding signal (z-score): -0.18
[8]
  glycan array binding signal (z-score): -0.016
[9]
  glycan array binding signal (z-score): 0.016
[10]
  glycan array binding signal (z-score): -0.293
[11]
  glycan array binding signal (z-score): -0.207
[12]
  glycan array binding signal (z-score): -0.233
[13]
  glycan array binding signal (z-score): -0.096
[14]
  glycan array binding signal (z-score): -0.289
[15]
  glycan array binding signal (z-score): -0.128
[16]
  glycan array binding signal (z-score): -0.156
Gal(b1-3)GlcNAc6S
  glycan array binding signal (z-score): -0.204
[17]
  glycan array binding signal (z-score): -0.191
[18]
  glycan array binding signal (z-score): 0.037
[19]
  glycan array binding signal (z-score): 0.03
[20]
  glycan array binding signal (z-score): 0.114
[21]
  glycan array binding signal (z-score): -0.217
[22]
  glycan array binding signal (z-score): -0.085
[23]
  glycan array binding signal (z-score): -0.171
[24]
  glycan array binding signal (z-score): -0.108
[25]
  glycan array binding signal (z-score): -0.266
[26]
  glycan array binding signal (z-score): -0.13
Gal(b1-4)Gal
  glycan array binding signal (z-score): -0.085
[27]
  glycan array binding signal (z-score): -0.247
[28]
  glycan array binding signal (z-score): -0.172
Gal(b1-4)Glc
  glycan array binding signal (z-score): -0.223
Gal(b1-4)Glc6S
  glycan array binding signal (z-score): -0.126
Gal(b1-4)GlcNAc
  glycan array binding signal (z-score): -0.228
[29]
  glycan array binding signal (z-score): -0.282
Gal(b1-4)GlcNAc(b1-2)Man
  glycan array binding signal (z-score): -0.226
[30]
  glycan array binding signal (z-score): -0.24
[31]
  glycan array binding signal (z-score): -0.196
